Assay results taken from the supplement of paper PMC6746778.
The other results are listed elsewhere or left out. Single values are uncertain, as repeats are few or missing.

Columns and labels:
Assay in all cases: proliferation Z-score within cell line (SRB, relative to all inhibitors screened on that line); triple-negative breast cancer lines and a kinase inhibitor library; SRB is the sulforhodamine B protein stain; higher = less growth inhibition (more resistant)
Details in all cases: concentration: 1 µM; 4 days
[1] = tested on: Bt20
[2] = tested on: Bt549
[3] = tested on: HCC1143
[4] = tested on: HCC1806
[5] = tested on: HCC1937
[6] = tested on: HCC38
[7] = tested on: HCC70
[8] = tested on: Hs578T
[9] = tested on: MDA-MB-231
[10] = tested on: MDA-MB-435s
[11] = tested on: MDA-MB-436
[12] = tested on: MDA-MB-453
[13] = tested on: MDA-MB-468
[14] = tested on: SKBR7
[15] = tested on: SUM1315MO2
[16] = tested on: SUM149PT
[17] = tested on: SUM159PT
[18] = tested on: SUM185PE
[19] = tested on: SUM229PE
[20] = tested on: SUM52PE
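Further: Single-dose primary screen of a 378-member kinase inhibitor library in 96-well plates, with growth read as absorbance of protein-bound SRB dye after TCA fixation.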

Structure (SMILES) | proliferation Z-score within cell line [1] | proliferation Z-score within cell line [2] | proliferation Z-score within cell line [3] | proliferation Z-score within cell line [4] | proliferation Z-score within cell line [5] | proliferation Z-score within cell line [6] | proliferation Z-score within cell line [7] | proliferation Z-score within cell line [8] | proliferation Z-score within cell line [9] | proliferation Z-score within cell line [10] | proliferation Z-score within cell line [11] | proliferation Z-score within cell line [12] | proliferation Z-score within cell line [13] | proliferation Z-score within cell line [14] | proliferation Z-score within cell line [15] | proliferation Z-score within cell line [16] | proliferation Z-score within cell line [17] | proliferation Z-score within cell line [18] | proliferation Z-score within cell line [19] | proliferation Z-score within cell line [20]
O=c1ncn2nc(Sc3ccc(F)cc3F)ccc2c1-c1c(Cl)cccc1Cl | 0.46 | 0.435 | 1.01 | 0.435 | -0.0857 | 0.52 | 0.583 | 0.512 | 0.809 | 0.767 | 0.245 | 0.834 | 0.77 | 0.177 | 0.477 | 0.516 | 0.54 | 0.813 | 0.679 | 0.671
CNC(=O)c1ccccc1Nc1nc(Nc2ccc(N3CCOCC3)cc2OC)ncc1Cl | -0.127 | 0.4 | -0.475 | -0.975 | 0.0523 | -0.0406 | -0.323 | -0.352 | -0.864 | -0.838 | 0.149 | -0.892 | 0.124 | -1.04 | 0.0145 | -0.838 | -0.607 | 0.257 | -0.946 | -0.234
Cc1cc2c(F)c(Oc3ncnn4cc(OC[C@@H](C)OC(=O)[C@H](C)N)c(C)c34)ccc2[nH]1 | 0.486 | 0.123 | -2.05 | 0.543 | -1.81 | 0.504 | -1.61 | 0.508 | 0.799 | 0.813 | -1.76 | 0.498 | 0.879 | -0.856 | 0.119 | 0.603 | -2.76 | -0.209 | 0.188 | 0.275
CCc1cccc(CC)c1NC(=O)N1Cc2[nH]nc(NC(=O)c3ccc(N4CCN(C)CC4)cc3)c2C1 | -0.719 | -0.411 | 0.902 | 0.0633 | 0.963 | -0.54 | 0.876 | 0.152 | -0.78 | -0.176 | 0.753 | -0.905 | -1.5 | -1.08 | -1.06 | -0.0152 | 0.41 | -1.79 | 0.0059 | -1.44
Cc1nc(NC(=O)N2CCC[C@H]2C(N)=O)sc1-c1csc(C(C)(C)C)n1 | 0.187 | 0.592 | 0.265 | -0.435 | 0.57 | 0.666 | 0.746 | 0.558 | 0.815 | 0.565 | 0.879 | -0.643 | 1.13 | 0.518 | 0.852 | 1.03 | 0.245 | -0.936 | 0.472 | 1.13
S=C(NCc1ccc2c(c1)OCO2)N1CCN(c2ncnc3c2oc2ccccc23)CC1 [Amuvatinib (MP-470)] | -0.573 | 0.361 | -0.532 | 0.31 | -0.389 | 0.399 | 0.427 | 0.582 | -0.00596 | 0.0898 | 0.268 | 0.353 | -0.281 | -0.194 | 0.332 | -0.514 | 0.44 | -0.168 | 0.297 | 0.0495
CC(C)(C)c1cc(/C=C(\C#N)C(N)=S)cc(C(C)(C)C)c1O [Tyrphostin AG 879] | 0.528 | 0.694 | 0.746 | 0.841 | 0.625 | 0.473 | 0.676 | 0.63 | 1.06 | 0.725 | 0.656 | 0.954 | 0.938 | 0.74 | 0.696 | 0.686 | 0.491 | 0.7 | 0.563 | 0.917
COc1cc2nccc(Oc3ccc(NC(=O)NC4CC4)c(Cl)c3)c2cc1C(N)=O [Lenvatinib (E7080)] | -0.195 | 0.542 | -1.16 | 0.506 | -0.0401 | 0.337 | -1.22 | 0.417 | 0.58 | 0.509 | -0.975 | -0.0675 | 0.466 | 0.613 | -1.34 | -0.328 | -1.94 | -1.29 | 0.179 | -1.38
CN1CCN(c2nc(C3=C(c4c[nH]c5ccccc45)C(=O)NC3=O)c3ccccc3n2)CC1 [Sotrastaurin] | 0.562 | 0.856 | 1.02 | 0.676 | 0.674 | 0.263 | 0.65 | 0.757 | 0.938 | 0.879 | 0.854 | 0.988 | 1.06 | 0.864 | 0.957 | 0.743 | 0.566 | 0.766 | 0.517 | 0.677
O=c1cc(N2CCOCC2)oc2c(-c3ccccc3)cccc12 | 0.612 | 0.281 | 0.561 | 0.32 | 0.507 | 0.513 | 0.426 | 0.464 | 0.776 | 0.54 | 0.647 | 0.36 | 0.9 | -0.674 | 0.39 | 0.597 | 0.312 | 0.289 | 0.0689 | 0.133
CNC(=O)c1cc(Oc2ccc(NC(=O)Nc3ccc(Cl)c(C(F)(F)F)c3)cc2)ccn1 [Sorafenib] | 0.76 | 0.7 | 1.01 | 1.66 | 0.537 | 0.501 | 0.626 | 0.451 | 0.409 | 0.541 | 0.835 | 0.803 | 0.719 | 0.128 | 0.0246 | 0.185 | 0.498 | -0.00153 | 1.7 | -0.977
CC(C)CCN1c2nc(Nc3cc(F)c(O)c(F)c3)ncc2N(C)C(=O)C1C (stereo not given) | 0.888 | 0.735 | 0.945 | 0.955 | 0.804 | 0.677 | 0.838 | 0.855 | 0.849 | 0.981 | 1.09 | 1 | 0.91 | 1.13 | 0.623 | 0.374 | 0.764 | 1.57 | 0.293 | 1.12
CC(C)(C)c1cc(NC(=O)Nc2ccc(-c3cn4c(n3)sc3cc(OCCN5CCOCC5)ccc34)cc2)no1 [Quizartinib (AC220)] | 0.909 | 0.651 | 1.07 | 0.899 | 0.47 | 0.519 | 0.612 | 0.272 | 0.843 | 0.887 | 1.07 | 0.918 | 1.11 | 1.18 | 1.06 | 0.816 | 0.681 | 1.16 | 0.923 | 1.1
